# According to PubChem BioAssay AID2147 (National Center for Advancing Translational Sciences (NCATS), 2009):
# The whole screen tested about 230,000 compounds, of which about 3,600 (1.6%) were called active. The shares of active, inactive and inconclusive entries below differ from those in the screen. The call rests on the fitted dose curve; in most records, active means well fitted inhibition curve with a large enough effect (not every such curve was filed as active); inconclusive means small, poorly fitted or top-dose-only effect, or another doubt; inactive means no such curve, though single readings can be large or run the other way. Where the call is inconclusive, the potency comes from a doubtful curve fit.
# Molecular target: Lysine-specific demethylase 4E (Homo sapiens) (UniProt B2RXH2)
# Assay: qHTS Assay for Inhibitors of Human Jumonji Domain Containing 2E (JMJD2E)
# Settings: JMJD2E catalytic domain, FDH-coupled NADH fluorescence (FDH is formaldehyde dehydrogenase); series mostly up to 57.1 µM; activity change, negative = inhibition: at the top concentration
# Further: nearly all actives have a fitted effect of over 50% in size.
# Potency means the concentration at half of the fitted maximal effect; tags describe the fitted curve by direction and shape.
# 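Wherever activity change, negative = inhibition is given: 0% = wells with enzyme and -100% = buffer wells without enzyme.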
# UniProt B2RXH2, sequence (B2RXH2 whole entry, looked up, the tested form may be a part): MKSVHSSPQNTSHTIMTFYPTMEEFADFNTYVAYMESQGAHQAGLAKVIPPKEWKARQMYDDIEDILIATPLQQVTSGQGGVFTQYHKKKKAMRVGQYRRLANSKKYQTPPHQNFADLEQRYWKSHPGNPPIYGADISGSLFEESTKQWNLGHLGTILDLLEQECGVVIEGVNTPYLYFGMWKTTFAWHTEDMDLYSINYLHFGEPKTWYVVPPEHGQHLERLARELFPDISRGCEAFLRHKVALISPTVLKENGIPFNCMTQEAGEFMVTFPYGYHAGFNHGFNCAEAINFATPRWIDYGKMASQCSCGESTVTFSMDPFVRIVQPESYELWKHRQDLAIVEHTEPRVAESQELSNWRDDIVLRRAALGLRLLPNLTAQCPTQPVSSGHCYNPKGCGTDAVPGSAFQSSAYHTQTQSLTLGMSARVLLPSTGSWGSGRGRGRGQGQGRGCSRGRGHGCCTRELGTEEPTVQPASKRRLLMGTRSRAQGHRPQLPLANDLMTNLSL
Structure (SMILES),"activity change, negative = inhibition",Potency
Nc1nc2c(nc(Br)n2[C@@H]2O[C@H]3COP(=O)(O)O[C@H]3[C@@H]2O)c(=O)[nH]1,inactive: 2.75%,
CCOc1ccc(NC(=O)c2ccc3c(c2)N(Cc2ccc(F)cc2)C(=O)CS3=O)cc1 (stereo unspecified),inactive: -6.34%,
Cc1ccnc(NC(=O)COC(=O)C23CC4CC(CC(C4)C2)C3)n1,,"inconclusive: 39.8 µM [inhibitor, single point]"
C#CCSc1nccc(-c2nn(-c3ccc(C)cc3)ccc2=O)n1,,"inconclusive: 28.2 µM [inhibitor, partial curve]"
NC(=S)NN=C1C2CC3CC(C2)CC1C3,,"inconclusive: 20 µM [inhibitor, single point]"
CCN(CC)CCCn1c(-c2ccccc2)nc2c(NCCOC)nc(C)nc21,,"inconclusive: 25.1 µM [inhibitor, partial curve]"
Cc1ccc2nc(-c3ccccn3)cc(C(=O)NC(C)C(C)(C)C)c2c1 (stereo unspecified),,"inconclusive: 28.2 µM [inhibitor, partial curve]"
S=C(NCc1ccc2c(c1)OCO2)Nc1ccc(-c2nc3ccccc3[nH]2)cc1,,"inconclusive: 28.2 µM [inhibitor, single point]"
CCCN1C(=S)SC(C)(C)C1/[N+]([O-])=C/c1ccc(S(=O)(=O)NC)cc1 (stereo unspecified),,"inconclusive: 39.8 µM [inhibitor, single point]"
O=S(=O)(Nc1ccccn1)c1cccs1,,"inconclusive: 28.2 µM [inhibitor, partial curve]"
O=C1Nc2ccc(S(=O)(=O)N3CCCC3)c3cccc1c23,,"inconclusive: 28.2 µM [inhibitor, single point]"
COc1ccc(NC(=O)COC(=O)c2cc(SC)ccc2Cl)c(OC)c1,,"inconclusive: 39.8 µM [inhibitor, single point]"
C/C=C/C1=Cc2ccccc2C(C(C(=O)OC)C(=O)OC)N1C(=O)OC (stereo unspecified),inactive: -9.87%,
CSC1CCCCC1(O)CSc1nc2c(cc1C#N)CCCC2 (stereo unspecified),,"inconclusive: 31.6 µM [inhibitor, single point]"
Cc1c(O)ccc(-c2n[nH]c(C(=O)O)c2-c2nc3ccccc3s2)c1O,,"inconclusive: 39.8 µM [inhibitor, single point]"
CCN(CC)c1ccc(C(=O)Nc2cccc(F)c2)cc1,,"inconclusive: 25.1 µM [inhibitor, single point]"
Nc1ccc2oc(-c3cccs3)nc2c1,,"inconclusive: 25.1 µM [inhibitor, partial curve]"
S=C(NCc1ccc2c(c1)OCO2)Nc1ccc2nsnc2c1,,"inconclusive: 39.8 µM [inhibitor, single point]"
c1ccc2c(c1)ncc1cccn12,,"inconclusive: 25.1 µM [inhibitor, partial curve]"
O=C1CN(C(=O)c2ccccc2)c2ccccc2N1,inactive: -1.69%,
CCOC(=O)C(C)Oc1cccc2c(=O)n(CC(=O)NCc3ccc4c(c3)OCO4)ccc12 (stereo unspecified),,"inconclusive: 25.1 µM [inhibitor, partial curve]"
CCOC(=O)N1CCN(C(=O)Cn2nc(-c3ccc(Cl)cc3)ccc2=O)CC1,,"inconclusive: 12.6 µM [inhibitor, partial curve]"
Cc1ccccc1OCc1nnc2c3cnn(C)c3ncn12,inactive: -0.377%,
COc1ccc(C2CC(C(F)(F)F)n3ncc(C(=O)O)c3N2)cc1OC (stereo unspecified),,"inconclusive: 25.1 µM [inhibitor, single point]"

Structure (SMILES),"activity change, negative = inhibition",Potency
CN(CCNC(=O)c1ccc(/C=N/O)nc1)Cc1ccccc1,inactive: 1.6%,
O=S(=O)(Cc1ccccc1)N1CCN(Cc2ccc3c(c2)OCO3)CC1,inactive: -0.46%,
O=C(NCCN1CCOCC1)C1CCN(c2ncnc3c2sc2cccc(F)c23)CC1,,"inconclusive: 39.8 µM [inhibitor, single point]"
Cc1ccc(NC(=S)NCCc2ccccc2)nc1,inactive: -21.5%,
Nn1c(=O)[nH]c2c([nH]c3ccccc32)c1=O,,"inconclusive: 31.6 µM [inhibitor, partial curve]"
O=C(c1ccc(Cn2cc(Br)cn2)o1)n1cccn1,inactive: -2.47%,
COc1ccc(-c2nc3ccccc3[nH]2)cc1,,"inconclusive: 25.1 µM [inhibitor, partial curve]"
COc1ccc(OC)c(/C=N\NC(=O)CSc2nnc(CCCc3ccc(OC)c(C)c3)o2)c1,,"inconclusive: 28.2 µM [inhibitor, partial curve]"
COc1ccc(-n2c(C)cc(C(=O)COC(=O)c3cc(OC)c(OC)cc3NC(=O)c3cccs3)c2C)cc1,,"inconclusive: 39.8 µM [inhibitor, single point]"
COc1ccc2c(c1)c(=O)oc1cc(OCC(=O)NC3CC3)ccc12,,"inconclusive: 14.1 µM [inhibitor, partial curve]"
COCCn1c(SCC(=O)Nc2ccc(C)cc2C)nc2c(oc3ccccc32)c1=O,inactive: 1.38%,
O=S(=O)(c1cccc2cnccc12)N1CCCNCC1,,inactive
O=C(O)CSc1ccc2ccccc2n1,,"inconclusive: 39.8 µM [inhibitor, single point]"
Cc1cc(C)nc(NC2=NCC(=O)N2CCc2c[nH]c3ccccc23)n1,,"inconclusive: 35.5 µM [inhibitor, partial curve]"
CC(C(=O)NCc1ccco1)n1nc(-c2ccccc2)c2cc(Cl)ccc21 (stereo unspecified),,"inconclusive: 39.8 µM [inhibitor, single point]"
O=C(Nc1ccccc1)c1cc2ccc3ccccc3c2s1,,"inconclusive: 39.8 µM [inhibitor, single point]"
CC(=O)Oc1ccc2c(=O)c(Oc3ccccc3)coc2c1OC(C)=O,,active: 3.55 µM
Cc1c(C(=O)N/N=C/c2ccc(O)cc2)sc(=S)n1C,,"inconclusive: 39.8 µM [inhibitor, single point]"
Cc1oc2cc(O)ccc2c(=O)c1Oc1ccc2ccccc2c1,,"inconclusive: 31.6 µM [inhibitor, partial curve]"
Cc1cc(C)nc(/N=C(\N)Nc2ccc(OCc3ccccc3)cc2)n1,inactive: 12.4%,
Cc1oc(-c2ccc(-c3ccccc3)cc2)nc1CN1CCN(CC(=O)N(C)C)CC1,,"inconclusive: 28.2 µM [inhibitor, partial curve]"
COc1ccc2[nH]c3c(=O)n(/N=C/c4ccc(OC)c(CN5CCCC5)c4)c(C)nc3c2c1,,"inconclusive: 35.5 µM [inhibitor, single point]"
Cn1nnnc1SCC(=O)Nc1nc(-c2ccccc2)c(-c2ccccc2)o1,,"inconclusive: 25.1 µM [inhibitor, single point]"
Cc1ccccc1OCC(=O)N/N=C/c1cn(C)c2ccccc12,,"inconclusive: 39.8 µM [inhibitor, single point]"

Structure (SMILES),"activity change, negative = inhibition",Potency
COc1ccc(C(=O)NN/C(=N/S(=O)(=O)c2ccc(C)cc2)c2ccccc2)cc1,,"inconclusive: 31.6 µM [inhibitor, partial curve]"
O=C(Nc1nnc(-c2ccccn2)o1)c1cccc(Br)c1,,"inconclusive: 31.6 µM [inhibitor, single point]"
Cc1ccc(-n2c(N)c(C(=O)N3CCCCC3)sc2=S)cc1,inactive: -18.6%,
N[C@H](Cc1ccc(O)c(O)c1)C(=O)O,,active: 17.8 µM
Cc1cc(C)c2nc(NC(=O)c3cccc(S(=O)(=O)N4CCc5ccccc54)c3)sc2c1,,"inconclusive: 35.5 µM [inhibitor, single point]"
CCNc1ccc2noc3c2c1C(=O)c1ccccc1-3,inactive: -7.3%,
Cc1ccccc1SCC(=O)Nc1ccc(N2CCOCC2)cc1,inactive: -7.62%,
Cc1noc(NS(=O)(=O)c2ccc(NC(=O)CSc3nc4c(cc3C#N)CCC4)cc2)c1C,,"inconclusive: 39.8 µM [inhibitor, single point]"
CCOC(=O)CSc1nc(N)c(C#N)c(-c2ccc(OC)cc2)c1C#N,,"inconclusive: 35.5 µM [inhibitor, single point]"
Cc1ccc2c(CN3CCN(Cc4ccc5c(c4)OCO5)CC3)cc(=O)oc2c1C,inactive: -12.4%,
COc1ccc(-c2cc(C(=O)Nc3ccc(S(=O)(=O)Nc4ncccn4)cc3)c3ccccc3n2)cc1,,"inconclusive: 35.5 µM [inhibitor, partial curve]"
O=C(c1ccccc1F)N1CCN(c2ccc([N+](=O)[O-])cc2-n2cccc2)CC1,inactive: -13.6%,
NC(=O)CSc1nc2ccccc2c(=O)n1Cc1ccco1,inactive: 11%,
Cc1cc(C(=O)N/N=C/c2cccc([N+](=O)[O-])c2O)n[nH]1,,active: 12.6 µM
Cc1cnc(C(=O)Nc2nccs2)cn1,,"inconclusive: 17.8 µM [inhibitor, single point]"
CCOC(=O)C1CCN(C(c2cc3ccc(C)c(C)c3[nH]c2=O)c2nnnn2C2CCCCC2)CC1 (stereo unspecified),,"inconclusive: 20 µM [inhibitor, partial curve]"
Cc1cccc(C(=O)Nc2ccc(C)c(OC(=O)c3cccc(C)c3)c2)c1,,"inconclusive: 39.8 µM [inhibitor, single point]"
Cc1cccc(C(=O)c2cnc3ccccc3c2-c2ccccc2)c1,inactive: -0.098%,
Cc1cc2cc(CN(Cc3ccc4c(c3)OCO4)C(=O)c3ccco3)c(=O)[nH]c2cc1C,,"inconclusive: 25.1 µM [inhibitor, single point]"
CCc1nnc(NC(=O)c2ccc3ncsc3c2)s1,,"inconclusive: 31.6 µM [inhibitor, single point]"
CC1CN(Cc2ccccc2Cl)CC(C)O1 (stereo unspecified),,"inconclusive: 39.8 µM [inhibitor, single point]"
CCc1cc(=O)n2c([nH]c3ccccc32)c1C#N,,"inconclusive: 10 µM [inhibitor, partial curve]"
Cc1cc(C)n(CCN(C)C(=O)CCc2nnc(CCC3CCCCC3)o2)n1,,"inconclusive: 39.8 µM [inhibitor, single point]"
